# Measurements taken from the supplement of paper PMC11417369.
# ± gives the standard deviation of the averaged measurements. Some of the results follow.
# Tested on: PfAP2-I AP2 domain 3 (GST-tagged)
# Assay: gcPBM binding intensity (ln(normalized median fluorescence intensity)); higher = stronger DNA binding
# Method in brief: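 An Agilent 4 × 180k array of primer-extended double-stranded 36-bp intergenic genomic probes, with negative controls, was incubated for 1 h with GST-tagged P. falciparum DNA-binding domains expressed in E. coli. Alexa488 anti-GST antibody detected bound protein, scanned at 488 nm. Binding intensity is the highest Masliner-normalised natural-log median intensity across replicate spots of either probe orientation.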
row,Sequence,gcPBM binding intensity (ln)
1,CCTTATTATTATTTTACACACGTCCTAATAAGAGGA [CACACA_site1319],8.19 ± 0.63
2,TATTTAAAAATATATACACACATTTTATATTATTAT [CACACA_site781],7.47 ± 0.41
3,AATATTATATATATGGGTACTAATTCCTTTAATTTC [XGTACX_site102],7.45 ± 0.53
4,TTTATCTGATATATTACACACAAAAAAAAAAAAAAA [CACACA_site7637],7.93 ± 0.79
5,TATTTTACAAAATAAGGTACGTAAATATATGGTAGG [XGTACX_site2133],8.18 ± 0.64
6,AAATATCTTTTATATTGTACATATTCCTTATGTGGA [XGTACX_site7638],7.44 ± 0.47
7,GAAATAGAAATAAAATAGGCATACAATAGAACTAAG [TGCATGCA_negctrl_site537],7.82 ± 0.64
8,TTATATATATATAATACACACATAATAATATATTTA [CACACA_site3038],7.67 ± 0.23
9,ATTTTTTTTATTTTTTCAATATATATATATATATAT [CACACA_negctrl_site1444],9.45 ± 0.32
10,TTATATATATATTATAGTACATATATAATATAGTAA [XGTACX_site6869],7.45 ± 0.3
11,ATATATGAGCAAAAATATATAAGATAACACATAAAT [CACACA_negctrl_site167],7.76 ± 0.81
12,TCTCTATAAATAAATACATGCATATAATAAAGAATT [TGCATGCA_site710],7.83 ± 0.63
13,ATAAGATATGTATATACACACATTTATTTACATATA [CACACA_site3263],7.76 ± 0.54
14,GCATAAGAAATAAATAGTACACACATAGACACACAC [XGTACX_site3095],9.37 ± 0.28
15,TATATATATATATACACACACATATATATATATATA [CACACA_site1346],9.24 ± 0.51
16,CGCACAAAAATATACACACACACATCTATATTTATT [CACACA_site7675],8.02 ± 0.37
17,AAAACAAATGAGTACACACACATAAAAGTTGAAAAT [CACACA_site6238],8.02 ± 0.52
18,TACCCATATTAATATGTGCGCATATAAAAGTCAAAC,8.58 ± 0.44
19,ATATATATATCAACAACACACGATTAACTAAAAAAA [CACACA_site302],8.8 ± 0.19
20,TTTTTTTAAACTGAAAGTACTTATTCCAAGAAAATA [XGTACX_site50],7.64 ± 0.42
21,ATAATGACTAAATTTAAACACACAAGGGGAGTTTAC [CACACA_site8209],7.58 ± 0.8
22,AAAAAAAAAAATATATTATTTTACTTGTTTATTTTT [GTGCAC_negctrl_site435],7.26 ± 0.47

row,Sequence,gcPBM binding intensity (ln)
1,AATAATCAAATATTAAAAATTGTGCAAAAAAAAAAA [XGTACX_negctrl_site399],9.69 ± 0.16
2,TCGTACTTGTATTATGCACACATATAATTAAACATA [CACACA_site9089],10.2 ± 0.57
3,TATGAAAAAATATATACACACATAATAAAGGTATAT [CACACA_site3737],7.73 ± 0.59
4,TTTGTTTTAAATATTATACACACGTAAAAGTATAAT [CACACA_site7954],7.82 ± 0.39
5,TAATATTATATATAAACACACATACCCATGTAAATA [CACACA_site5170],7.7 ± 0.74
6,TTCAATAGTAAGTATACACACATATATATATATAAA [CACACA_site2687],7.82 ± 0.47
7,TAATTCGCAAAAGAAAGAAATTAAGAAAAAGAAAAA [XGTACX_negctrl_site614],7.38 ± 0.74
8,TTTCTTTTTTTTTTTTCATTGATCCATTTATGATTA [TGCATGCA_negctrl_site225],7.42 ± 0.56
9,TTATAGGTTCTATACATATATTTATATATGTACAGA [CACACA_negctrl_site60],7.38 ± 0.19
10,TTTTTAAAAATATACACACACAGATATTATAGATAT [CACACA_site6511],7.92 ± 0.7
11,CAAGCTATGTATTCTACACACACATACACCCATATA [CACACA_site9133],8.15 ± 0.71
12,TAAAAAAAATAAACGTGTACATAAAAATGAATATGT [XGTACX_site119],8.38 ± 0.71
13,TTAATATATTAAATCTTACACACTAAAAAATATGTA [CACACA_site307],7.47 ± 0.5
14,AGTATACATATATATACACACACACCGATATATATA [CACACA_site8357],8.05 ± 0.74
15,TATGCGTCTTGCCTTGCACACTTTTATGAAAAAAAA [CACACA_site5174],8.22 ± 0.35
16,GAAAATATTATAGCACCACACACTTATTTTATATAT [CACACA_site2265],10.5 ± 0.71
17,AACGTTAAAAAAAAAATATATATAAGGAGAAAGCAC [XGTACX_negctrl_site338],9.035 ± 0.007
18,ATATGTAAATAAATATGTACTCATTTATTATTTTAT [XGTACX_site8748],7.91 ± 0.22
19,CGTTATATATATAAAAGTACAAAAATTAAACATTCC [XGTACX_site4568],7.78 ± 0.57
20,ATATGTATATTTTTTTGTACGTATTTATGTGTGTGT [XGTACX_site2093],8.12 ± 0.13
21,ATATTTTATGTGTTGGTGCACATCTTTATTTAAACT [GTGCAC_site9736],10.2 ± 0.28
22,ATATATACAAGTATTTTTTTTTCAAACATTATTTTT [CACACA_negctrl_site1808],7.66 ± 0.61
